PubChem BioAssay AID1745853 (National Center for Advancing Translational Sciences (NCATS), 2022)
The list shows a part of the results. The main result of the screen is listed elsewhere. These columns were measured beside it and carry no call.

Key:
Assay in all cases: Primary Screen for Target Class Profiling of Small Molecule Inhibitors of Methyltransferases
[1] = target: Glycine N-methyltransferase (Homo sapiens) (UniProt Q14749); conditions: purified enzyme, MTase-Glo SAH luminescence; measured here: GNMT inhibition; at 40 µM; stronger effect = lower value
Procedure, shortened: (§1)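 Each enzyme was reacted with SAM and its substrate, with compounds tested once at 40 uM; SAH formed was read by MTase-Glo luminescence.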

[2] = target: Guanidinoacetate N-methyltransferase (Homo sapiens) (UniProt Q14353); conditions: purified enzyme, MTase-Glo SAH luminescence; measured here: GAMT inhibition; at 40 µM; stronger effect = lower value
Procedure, shortened: as §1

[3] = target: Histamine N-methyltransferase (Homo sapiens) (UniProt P50135); conditions: purified enzyme, MTase-Glo SAH luminescence; measured here: HNMT inhibition; at 40 µM; stronger effect = lower value
Procedure, shortened: as §1

[4] = target: Nicotinamide N-methyltransferase (Homo sapiens) (UniProt P40261); conditions: purified enzyme, MTase-Glo SAH luminescence; measured here: NNMT inhibition; at 40 µM; stronger effect = lower value
Procedure, shortened: as §1

[5] = target: Phenylethanolamine N-methyltransferase (Homo sapiens) (UniProt P11086); conditions: purified enzyme, MTase-Glo SAH luminescence; measured here: PNMT inhibition; at 40 µM; stronger effect = lower value
Procedure, shortened: as §1
On the % scale 0 is the no-effect control and ±100 the full control effect.

Row | Structure (SMILES) | activity change, negative = inhibition [1] | activity change, negative = inhibition [2] | activity change, negative = inhibition [3] | activity change, negative = inhibition [4] | activity change, negative = inhibition [5]
1 | Cc1noc(C)c1S(=O)(=O)N1CCCOCCNC(=O)[C@@H]2CCC[C@@H]21 | -1.94% | -1.64% | 0.713% | -4.12% | -8.46%
2 | O[C@H]1CC[C@@H](Cc2cc(CN3CCCCC3)on2)O[C@@H]1CNCc1cccnc1 | -0.89% | -0.669% | 0.56% | -2.37% | 0.407%
3 | CCN(CC)Cc1cccc(/C=C/c2nc3ccc(F)cc3c(=O)n2-c2ccccc2Cl)n1 | -17.4% | -0.869% | -12.5% | -36.6% | 1.56%
4 | Nc1nc(-c2ccc(Cl)c(Cl)c2)c(-c2ccncc2)s1 | – | 3.65% | – | -20.1% | -10.9%
5 | Cn1c(=O)n(C)c2cc(S(=O)(=O)N3CCOCC3)c(Cl)cc21 | 0.025% | 6.1% | 3.9% | 8.81% | -1.83%
6 | N[C@@H](CS(=O)O)C(=O)O | 1.34% | 10.4% | 7.08% | -3.55% | 5.59%
7 | COc1cccc(Cn2nc3n(Cc4ccc(C)cc4)c(=O)c4ccccc4n3c2=O)c1 | 2.12% | 0% | 6.08% | -0.188% | -0.418%
8 | COc1cccc(CN2Cc3nc(-c4cnn(C)c4)ccc3OCC2=O)c1 | -11.3% | -0.176% | -5.77% | -7.91% | -14.9%
9 | CCCCN1C(=O)c2cc(C(=O)NC3CCCC3)nn2CC1(C)C(=O)NC1CCCC1 (stereo not drawn) | 7.68% | 0% | 9.51% | 6.79% | 5.82%
10 | COC1OC(O)C2(CCC3(O2)C(C)CC2OC(=O)C4(C)CCCC3(C)C24)C1O (stereo not drawn) | 0% | 7.48% | 9.15% | -6.09% | 2.45%
11 | COCCCNC(=O)c1cc2n(n1)CC(C)(C(=O)NC1CCCCC1)N(C)C2=O (stereo not drawn) | -0.239% | -0.046% | -0.364% | -2.24% | -2.62%
12 | COc1ccc(C(=O)COC(=O)C(Cc2c[nH]c3ccccc23)NC(=O)c2ccc(Br)cc2)cc1 (stereo not drawn) | 0.321% | 3.7% | 3.97% | -2.24% | -3.23%
13 | CCCn1c(=O)c2ccc(C(=O)NCC(C)C)cc2n2c(=O)n(Cc3cccc(Cl)c3)nc12 | 4.28% | 0.805% | 9.24% | -2.64% | 6.1%
14 | CCCNC(=O)N1Cc2c(sc3c2CCCC3)-n2cccc2C1c1cccc(C)c1 (stereo not drawn) | -4.88% | 0% | 3.24% | -11.9% | -2.59%
15 | CCCNS(=O)(=O)c1ccc2c(c1)n(C)c(=O)n2C | 6.8% | 0% | 5.77% | 0.007% | 0.189%
16 | C[C@H]1CC[C@@]2(OC1)O[C@H]1CC3C4CC[C@H]5C[C@@H](O)CC[C@]5(C)C4=CC(=O)[C@]3(C)[C@H]1[C@@H]2C (stereo partly drawn) | -1.7% | 0.362% | 5.11% | -9.11% | -9.34%
17 | CN(C)C[C@@H]1CN(Cc2ccccn2)C[C@H]1NC(=O)c1n[nH]c2ccccc12 | -7.66% | -1.36% | -3.43% | -2.35% | -3.95%
18 | Cc1ccc(C)c(N2CCN(S(=O)(=O)c3ccc4[nH]c5c(c4c3)CCCC5)CC2)c1 | 3.44% | 0% | 2.34% | 2.78% | 2.64%
19 | CCCN1C(=O)c2cc(-c3ccc(OC)cc3)nn2CC1(C)C(=O)NCc1ccccc1OC (stereo not drawn) | 2.65% | 2.46% | 5.97% | 2.77% | -0.594%
20 | COc1ccc(-c2n[nH]n3c2nc(=O)c2ccc(C(=O)NC(C)c4ccc(F)cc4)cc23)cc1 (stereo not drawn) | -30.1% | 2.12% | 0.273% | -7.05% | -4.76%
